Reference: PubChem BioAssay (NCATS)
The shares of active, inactive and inconclusive entries below differ from those in the screen. Potencies of inconclusive entries are left out as doubtful fits. Calls of active or inactive are those of the source. Calls come from the whole dose curve; as a rule, active = well fitted inhibition curve with a large enough effect; inconclusive = small, poorly fitted or top-dose-only effect; inactive = flat fitted curve, though single readings scatter.

assay: BET inhibitor-based combinations targeting novel dependencies in MECOM-rearranged (r) AML: AML-191 cell line (AID 2202236; note: nearly all actives have a fitted effect of over 35% in size;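 for viability (% of control): plate controls were vehicle wells for no effect and wells without cells for full effect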); conditions: AML-191 viability, CellTiter-Glo luminescence, 48 h; series mostly up to 46 µM; viability (% of control): at the top concentration
Method in brief: (§1)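 AML cell lines seeded at 500 cells/well, treated with 11-point dose curves for 48 h. Viability by CellTiter-Glo luminescence, normalised to DMSO and empty wells; activity expressed as AUC and per-cell-line Z-transformed AUC.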
Potency is the fitted concentration of half-maximal effect; tags give direction and shape of the fitted curve.

SMILES | Potency | viability (% of control)
CC1=C[C@@H]2[C@@H]([C@@H](O)C[C@@]3(C)[C@H]2C[C@@H](C)[C@]3(O)C(=O)CO)[C@@]2(C)Cc3cnn(-c4ccccc4)c3C=C12 | inconclusive [inhibitor, partial curve] | –
CC(C)n1c(/C=C/[C@H](O)C[C@H](O)CC(=O)O)c(-c2ccc(F)cc2)c2ccccc21 | inconclusive [inhibitor, partial curve] | –
COC(=O)C1=C(C)NC(c2ncc(F)cc2F)=N[C@H]1c1ccc(F)cc1Cl | inconclusive [inhibitor, partial curve] | –
CC1=C(CC(=O)O)c2cc(F)ccc2C1=Cc1ccc(S(C)=O)cc1 (centres undefined) | inconclusive [inhibitor, partial curve, poor fit] | –
Cc1ccc(NC(=O)c2ccc(CN3CCNCC3)cc2)cc1Nc1nccc(-c2cccnc2)n1 | inconclusive [inhibitor, single point] | –
COc1cc2nccc(Oc3ccc(NC(=O)C4(C(=O)Nc5ccc(F)cc5)CC4)cc3)c2cc1OC | inconclusive [inhibitor, full curve] | –
CC(C)(C)Sc1c(CC(C)(C)C(=O)O)n(Cc2ccc(Cl)cc2)c2ccc(OCc3ccc4ccccc4n3)cc12 | inconclusive [inhibitor, single point] | –
O=C1c2ccccc2-c2n[nH]c3cccc1c23 | inconclusive [inhibitor, partial curve] | –
O=C1C[C@@H](c2ccc(O)cc2)Oc2cc(O)cc(O)c21 | – | inactive: 104%
CC#Cc1cncc(-c2ccc3c(c2)[C@@]2(N=C(C)C(N)=N2)C2(CCC(OC)CC2)C3)c1 (some centres undefined) | inconclusive [inhibitor, single point] | –
NCCCCNCCCN | inconclusive [inhibitor, single point] | –
C[C@H](NC(=O)/C(C#N)=C/c1cccc(Br)n1)c1ccccc1 | active: 4.68 µM | –
Cn1cc(-c2cc(Oc3cc(F)c(NC(=O)C4(C(=O)Nc5ccccc5)CC4)cc3F)ccn2)cn1 | inconclusive [inhibitor, partial curve] | –
CCN1C(=O)CNc2ncc(-c3ccc(-c4ncn[nH]4)nc3C)nc21 | inconclusive [inhibitor, full curve] | –
CC(C)(Oc1ccc(C2CC2(Cl)Cl)cc1)C(=O)O (centres undefined) | – | inactive: 104%
CN1CCN(C2=Nc3cc(Cl)ccc3Nc3ccccc32)CC1 | inconclusive [inhibitor, partial curve, poor fit] | –
O=c1sn(-c2cccc3ccccc23)c(=O)n1Cc1ccccc1 | inconclusive [inhibitor, partial curve] | –

assay: BET inhibitor-based combinations targeting novel dependencies in MECOM-rearranged (r) AML: AML-194 cell line (AID 2202237; note: nearly all actives have a fitted effect of over 40% in size;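 for viability (% of control): plate controls were vehicle wells for no effect and wells without cells for full effect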); conditions: AML-194 (MECOM-r AML) viability, CellTiter-Glo, 48 h; series mostly up to 46 µM; viability (% of control): at the top concentration
Method in brief: as §1

SMILES | viability (% of control) | Potency
NC(=O)c1ccc(N(C(N)=O)c2c(F)cccc2F)nc1-c1ccc(F)cc1F | inactive: 91.1% | –
CCN(CC)CCNc1ccc(C)c2sc3ccccc3c(=O)c12 | – | active: 16.6 µM
CC1=C[C@@H]2[C@@H]([C@@H](O)C[C@@]3(C)[C@H]2C[C@@H](C)[C@]3(O)C(=O)CO)[C@@]2(C)Cc3cnn(-c4ccccc4)c3C=C12 | – | inconclusive [inhibitor, partial curve, poor fit]
CC(C)n1c(/C=C/[C@H](O)C[C@H](O)CC(=O)O)c(-c2ccc(F)cc2)c2ccccc21 | – | inconclusive [inhibitor, partial curve]
[O-][n+]1cccc(-c2nc3c(Cl)cccc3cc2[C@@H](Nc2ncnc3cccnc23)C(F)(F)F)c1 | – | inconclusive [inhibitor, partial curve]
COC(=O)C1=C(C)NC(c2ncc(F)cc2F)=N[C@H]1c1ccc(F)cc1Cl | – | inconclusive [inhibitor, partial curve]
C[C@@H](Oc1cc(-n2cnc3ccc(CN4CCN(C)CC4)cc32)sc1C(N)=O)c1ccccc1C(F)(F)F | – | inconclusive [inhibitor, full curve, poor fit]
O=C(Nc1ccc(OC(F)(F)Cl)cc1)c1cnc(N2CC[C@@H](O)C2)c(-c2ccn[nH]2)c1 | – | active: 18.6 µM
Cc1ccc(NC(=O)c2ccc(CN3CCNCC3)cc2)cc1Nc1nccc(-c2cccnc2)n1 | – | active: 23.5 µM
COc1cc2nccc(Oc3ccc(NC(=O)C4(C(=O)Nc5ccc(F)cc5)CC4)cc3)c2cc1OC | – | inconclusive [inhibitor, full curve]
CCOc1ccc(-n2c([C@@H](C)N(Cc3cccnc3)C(=O)Cc3ccc(F)c(C(F)(F)F)c3)nc3ncccc3c2=O)cc1 | – | inconclusive [inhibitor, partial curve, poor fit]
COc1ccc(-c2cc3nccn3c(Nc3ncccc3C(N)=O)n2)cc1OC | – | inconclusive [inhibitor, partial curve]
CC(C)(C)Sc1c(CC(C)(C)C(=O)O)n(Cc2ccc(Cl)cc2)c2ccc(OCc3ccc4ccccc4n3)cc12 | – | inconclusive [inhibitor, single point]
O=C(Nc1cccc(Br)c1)c1cccc(S(=O)(=O)N2CCCCCC2)c1 | – | inconclusive [inhibitor, single point]
COc1ccccc1C(=O)Nc1cc2c(cc1N1CCNC[C@H]1C)n(C)c(=O)n2C | – | inconclusive [inhibitor, single point]
O=C1c2ccccc2-c2n[nH]c3cccc1c23 | – | inconclusive [inhibitor, partial curve]
NC1CCC(N[C@@H]2C[C@H]2c2ccccc2)CC1 (some centres undefined) | inactive: 109% | –
CNC(=O)[C@H](Cc1ccccc1)NC(=O)[C@H](CC(C)C)[C@H](CSc1cccs1)C(=O)NO | inactive: 104% | –
Cc1ccc(NS(=O)(=O)c2cccc(C#N)c2)c2[nH]cc(C#N)c12 | – | inconclusive [inhibitor, full curve]
NCCCCNCCCN | – | inconclusive [inhibitor, single point]
C[C@H](NC(=O)/C(C#N)=C/c1cccc(Br)n1)c1ccccc1 | – | active: 9.34 µM
Cn1cc(-c2cc(Oc3cc(F)c(NC(=O)C4(C(=O)Nc5ccccc5)CC4)cc3F)ccn2)cn1 | – | inconclusive [inhibitor, partial curve]
C#Cc1cccc(Nc2ncnc3cc(OCCOC)c(OCCO)cc23)c1 | – | inconclusive [inhibitor, partial curve]
COC(=O)C1C2CC3c4[nH]c5cc(OC)ccc5c4CCN3CC2CC(OC(=O)c2cc(OC)c(OC)c(OC)c2)C1OC (centres undefined) | – | inconclusive [inhibitor, single point]
CCN1C(=O)CNc2ncc(-c3ccc(-c4ncn[nH]4)nc3C)nc21 | – | inconclusive [inhibitor, full curve]
CC(C)(Oc1ccc(C2CC2(Cl)Cl)cc1)C(=O)O (centres undefined) | inactive: 114% | –
Cc1c(-c2cnccn2)ssc1=S | – | inconclusive [inhibitor, partial curve, poor fit]
